Measured values as given in PubChem BioAssay AID686971 (National Center for Advancing Translational Sciences (NCATS), 2013).
The campaign covered roughly 360,000 compounds. About 7,500 (2.1%) were called active. Inconclusive means that the source gave no clear call. Such entries were picked first, then a sample of the others. The call rests on the fitted dose curve; in most records, active means well fitted cell-killing curve with a large enough effect; inconclusive means small, poorly fitted or top-dose-only effect, or effect the other way, or another doubt; inactive means no such curve, though single readings can be large or run the other way. Potencies of inconclusive entries are left out as doubtful fits.

assay: qHTS for induction of synthetic lethality in tumor cells producing 2HG: qHTS for the HT-1080-IDH1KD cell line; conditions: HT-1080 IDH1 knockdown viability, ATP luminescence, 48 h; activity, negative = toxicity: at 46.1 µM (top of the series) unless noted;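 on activity, negative = toxicity: 0% = DMSO wells and -100% = cell-free medium wells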
Summary of the method: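 Cytotoxicity counter-line: IDH1KD HT-1080, 48 h, CellTiter-Glo. Curves classed by r2, magnitude and activity.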
Potency means the concentration at half of the fitted maximal effect; tags describe the fitted curve by direction and shape.

Structure (SMILES) | Potency | activity, negative = toxicity
COc1cccc(NC(=O)c2cccc(C(=O)Nc3cccc(OC)c3)c2)c1 | inconclusive [cytotoxic, partial curve] | –
Cc1ccc(N(Cc2ccccc2)C(=O)CSC(C)C(=O)Nc2cc(C)on2)cc1 (stereo unspecified) | inconclusive [cytotoxic, single point] | –
C/C=C/CSc1nc2c(c(=O)[nH]c(=O)n2C)n1CCC | inactive | –
CCN(c1ccc(OC)cc1)S(=O)(=O)c1cc(-c2cc(C)no2)ccc1OC | inactive | –
O=C(Nc1cccc(C(F)(F)F)c1)Oc1ccc(Cl)c2cccnc12 | active: 14.6 µM | –
OC(c1ccc(F)cc1)c1nc(-c2ccc(Cl)cc2)cs1 (stereo unspecified) | inconclusive [cytotoxic, single point] | –
Cc1ccc(S(=O)(=O)c2nc(NCc3ccc4c(c3)OCO4)sc2Cl)cc1 | inconclusive [cytotoxic, single point] | –
CN(Cc1cc(Cl)cc(Cl)c1O)Cc1c(O)ccc2ccccc12 | inconclusive [cytotoxic, single point] | –
CC(=O)Nc1ccc(C=NN=C2c3ccccc3-c3ccccc32)cc1 | inconclusive [cytotoxic, single point] | –
COc1ccc(Cl)c(-c2cc(C(=O)Nc3ccc(C)c(NS(C)(=O)=O)c3)[nH]n2)c1 | inconclusive [cytotoxic, single point] | –
O=C(CNC(=O)c1cccs1)N/N=C/c1c[nH]c2ccccc12 | inactive | –
CN(C)CCCNS(=O)(=O)c1ccc(Oc2ncc(C(F)(F)F)cc2Cl)cc1 | inconclusive [cytotoxic, single point] | –
COc1cc(/C=N\Nc2nncn2N)ccc1OC(C)=O | inconclusive [cytotoxic, single point] | –
CC1(c2ccc(Cl)cc2)NC(=S)N2C1NC(=S)N2c1ccccc1 (stereo unspecified) | inactive | –
Cn1cc([N+](=O)[O-])c(C(=O)Nc2ccc(-c3nc4ccccc4o3)cc2)n1 | inconclusive [cytotoxic, single point] | –
COc1ccc(NC(=O)C(NC(=O)OC(C)(C)C)C(C)OCc2ccccc2)cc1 (stereo unspecified) | inconclusive [cytotoxic, single point] | –
Cc1ccc(C)c(/C=N/NC(=S)NC(C)C)c1 | inactive | –
CCCCOCCCNC(=O)C[C@@H]1C[C@@]2(C(=O)OCC)CCCC=C2N(Cc2cccc3ccccc23)C1=O | inconclusive [cytotoxic, single point] | –
COc1cccc(/C=N\NC(=O)Cn2nnc3ccccc32)c1O | inconclusive [cytotoxic, single point] | –
O=C(CCNc1cccc(Cl)c1)c1cccs1 | inconclusive [cytotoxic, single point] | –
CCOc1ccc(C(=O)CCc2nc3ccccc3s2)cc1 | inconclusive [cytotoxic, single point] | –
COc1cc2nc(CN(C)Cc3ccc(SC)cc3)[nH]c(=O)c2cc1OC | inactive | –
Clc1ccc(-c2ccnc(Oc3cc(Cl)ccc3Cl)n2)cc1 | inconclusive [cytotoxic, single point] | –
CC1(C(=O)Nc2cccc(OC(F)(F)F)c2)Cc2c(-c3cccc(C(F)(F)F)c3)ccnc2O1 (stereo unspecified) | inconclusive [cytotoxic, single point] | –

Structure (SMILES) | Potency | activity, negative = toxicity
CCC1CN(C(=O)N2CCC(C(=O)NCc3ccc(C)o3)CC2)c2cc(C)ccc2O1 (stereo unspecified) | inactive | –
CN(Cc1ccccc1)C(=O)CCSc1nc(-c2ccc3c(c2)OCO3)cc(C(F)(F)F)n1 | inconclusive [cytotoxic, partial curve] | –
COC(=O)c1ccc(C(NC(=O)OCc2ccccc2)/C(F)=C/[C@@H](C)C(=O)NCc2ccc(-c3ccccc3)cc2)cc1 (stereo partly specified) | inactive | –
CC(=O)NC(c1ccccc1)c1nc(-c2cccc(CO)c2)cs1 (stereo unspecified) | inconclusive [rising, single point] | –
Cc1ccc(/C=C2/Sc3ccccc3N(CC(=O)NCCCOC(C)C)C2=O)cc1 | inactive | –
O=C(CSc1nncn1-c1ccccc1)NC1CCCCC1 | inactive | –
Cc1ccnc(NC(=O)/C=C/c2cccs2)c1 | inconclusive [cytotoxic, partial curve] | –
NCCCNc1nc(N)c([N+](=O)[O-])c(NC2CCCCC2)n1 | inconclusive [cytotoxic, single point] | –
Cc1ccc(C2CC(=O)C=C(NCc3ccccc3)C2)cc1 (stereo unspecified) | active: 20.6 µM | –
Cc1ccccc1NC(=O)C(Cl)=C(Cl)Cl | inconclusive [cytotoxic, single point] | –
CCc1ccc(CN(C)C(=O)c2cc(COc3cccc(C(F)(F)F)c3)on2)nc1 | inconclusive [cytotoxic, single point] | –
O=C(COC(=O)/C=C/c1cccc(C(F)(F)F)c1)NCCN1C(=O)CSC1=O | inactive | –
O=[N+]([O-])c1ccc(Sc2nc3ccccc3o2)c([N+](=O)[O-])c1 | active: 2.82 µM | –
C/C(=N\NC(=O)CNC(=O)c1cccs1)c1ccc(Cl)c(Cl)c1 | inconclusive [cytotoxic, single point] | –
CN(C)C1=NC[C@H](Cc2ccccc2)N1CC1CCCCC1 | inactive | –
CCCCCCCCN1C(=O)[C@H](CC(=O)N2CCCC2)C[C@@]2(C(=O)OC)CCCCC=C12 | inconclusive [cytotoxic, single point] | –
O=C(N/N=C/c1ccc(Br)s1)c1cccc([N+](=O)[O-])c1 | inconclusive [cytotoxic, single point] | –
O=C(NCC(c1cccs1)N1CCOCC1)c1cn(-c2ccccc2)nc1-c1ccc(F)cc1 (stereo unspecified) | inactive | –
CC(=O)c1cccc(-n2c(CCC(=O)O)ccc2-c2cccs2)c1 | inconclusive [cytotoxic, single point] | –
COc1ccc(NC(=O)C(c2ccc(C(F)(F)F)cc2)n2c(=O)c(-c3cc4ccccc4[nH]3)nc3ccccc32)cc1 (stereo unspecified) | inconclusive [cytotoxic, single point] | –
C#CCOC(=O)Nc1cccn(Cc2c(Cl)cccc2Cl)c1=O | inconclusive [cytotoxic, partial curve] | –
CC(=O)n1c2ccccc2c2c1c1ccccc1n2C | inconclusive [cytotoxic, single point] | –
FC(F)(F)c1nc2ccccc2n2c(-c3ccc(Cl)cc3Cl)nnc12 | inconclusive [cytotoxic, single point] | –
Cc1ccc(O)c(N=NC2=C(O)CC(C)(C)CC2=O)c1 | inconclusive [cytotoxic, full curve, poor fit] | –

Structure (SMILES) | Potency | activity, negative = toxicity
CCOc1ccccc1CN1CCN(Cc2[nH]c3ccccc3c2C)CC1CCO (stereo unspecified) | – | inconclusive: -33.5% [cytotoxic]
CCOc1ccccc1NC(=O)NNC(=O)COc1cccc(C)c1C | inactive | –
OC(CNCC(c1ccco1)N1CCCCC1)c1ccccc1 (stereo unspecified) | inactive | –
NC(=O)c1oc2ccccc2c1NC(=O)c1ccc([N+](=O)[O-])o1 | active: 2.06 µM | –
O=C(c1cccs1)c1no[n+]([O-])c1C(=O)c1cccs1 | inconclusive [cytotoxic, single point] | –
Cc1[nH]nc2c1C1(CCC(c3ccccc3)CC1)C(C#N)=C(N)O2 (stereo unspecified) | inactive | –
O=C(NC1CCCC1)C(c1ccncc1)N(CC1CCCO1)C(=O)Cn1nnc(-c2cccs2)n1 (stereo unspecified) | inactive | –
NC1=C(c2ccccc2)C(=O)NC1=O | inactive | –
CC(=O)OCC(=O)C1(O)CCC2C3CCC4=CC(=O)CCC4(C)C3C(O)CC21C (stereo unspecified) | – | inconclusive: 18.3%
COc1ccc(S(=O)(=O)N2CCCCCC2)cc1NC(=O)CN(C)Cc1ccc2c(c1)OCO2 | inconclusive [cytotoxic, single point] | –
CCN(CC)C(=O)c1[nH]cnc1C(=O)NCc1ccc(CNC(=O)OC(C)(C)C)cc1 | inactive | –
Cn1c(C(=O)NCc2cccs2)cc2oc3ccccc3c21 | inconclusive [cytotoxic, partial curve] | –
COc1ccc(C2CC(c3ccccc3OC(C)=O)=NN2C(=O)/C=C/c2ccccc2)cc1OC (stereo unspecified) | inconclusive [cytotoxic, single point] | –
CCOc1ccc(/C=C2\SC(=S)N(CCC(=O)N(CCO)c3ccccc3)C2=O)cc1 | inconclusive [cytotoxic, single point] | –
NS(=O)(=O)c1ccc(N=C2C(=O)Nc3ccccc32)cc1 | inactive | –
COc1ccc2[nH]c(C(=O)N/N=C/c3ccc(OC)c(O)c3)cc2c1 | active: 1.16 µM | –
COc1cc(NC(=O)c2cc3ccccc3cc2O)c(OC)cc1Cl | inconclusive [cytotoxic, single point] | –
COc1ccccc1CNC(=S)Nc1ccc2nc(N3CCN(C)CC3)cc(C)c2c1 | inconclusive [cytotoxic, single point] | –
Cn1c(N/N=C/c2cc3ccccc3nc2Cl)nc2ccccc21 | inconclusive [cytotoxic, single point] | –
COc1ccc(CCNC(=O)c2[nH]c(C)c(C(C)=O)c2C)cc1OC | inactive | –
O=c1[nH]c(COc2ccc(Cl)cc2Br)nc2ccccc12 | inactive | –
C[C@@H]1CC=C[C@@H]2[C@H]1C(=O)N(Cc1ccccc1)[C@H]2c1cccc(C#Cc2ccccc2)c1 | inconclusive [cytotoxic, single point] | –
CC(C)Cn1c(N)c(C(=O)COC(=O)CCc2nc3ccccc3c(=O)[nH]2)c(=O)n(C)c1=O | inactive | –
